This assay deals with OVCAR8. Description: cell count relative to DMSO vehicle (fold change); OVCAR8 is a high-grade serous ovarian cancer line and CX-5461 an RNA polymerase I inhibitor; higher = more surviving senescent cells (less killing). As to conditions: senescence inducer: CX-5461 3 µM 48 h, then 6 d recovery (CX senescent), exposure time 24 h.

Data on 19 compounds can be found in the supplement of paper PMC12462457.

± gives the standard deviation of the averaged measurements. The list shows a part of the results.

For the compound `CCC(C)(C)C(=O)N(O)Cc1ccccc1`, the cell count reads like this: (compound dose 1 µM) 1.16 ± 0.24; (compound dose 5 µM) 1.12 ± 0.23.

In the case of `Cc1ccc(C(C)C)cc1O` [Carvacrol], the cell count was determined as 1.06 ± 0.16 (compound dose 1 µM) and 1.09 ± 0.037 (compound dose 5 µM).

In the case of `COc1ccc(F)c(F)c1C(=O)c1cnc(NC2CCN(S(C)(=O)=O)CC2)nc1N`, the cell count (compound dose 1 µM) was determined as 1.03 ± 0.19 and the cell count (compound dose 5 µM) was found to be 1.12 ± 0.11.

On to `CCN1CCN(Cc2ccc(NC(=O)c3ccc(C)c(Oc4ncnc5cc(OC)c(OC)cc45)c3)cc2C(F)(F)F)CC1`, for which the cell count (compound dose 1 µM) is 1.07 ± 0.23 and the cell count (compound dose 5 µM) came out at 0.644 ± 0.1.

On to `O=C1OCCN1/N=C/c1ccc([N+](=O)[O-])o1` [Furazolidone], for which the cell count was 1.17 ± 0.3 (compound dose 1 µM) and 1.16 ± 0.054 (compound dose 5 µM).

In the case of `O=S(=O)(O)c1cc(O)ccc1O` [Calcium dobesilate], the cell count (compound dose 1 µM) was determined as 1.07 ± 0.055 and the cell count (compound dose 5 µM) came out at 0.976 ± 0.17.

Take `Cc1c(O)c(=O)ccn1C`: the cell count is, setting by setting: (compound dose 1 µM) 1.08 ± 0.051; (compound dose 5 µM) 1.15 ± 0.16.

With `COc1cc([C@@H]2c3cc4c(cc3[C@@H](O[C@@H]3O[C@@H]5CO[C@@H](C)O[C@H]5[C@H](O)[C@H]3O)[C@H]3COC(=O)[C@H]23)OCO4)cc(OC)c1O` [Etoposide], the cell count was determined as 1.13 ± 0.088 (compound dose 1 µM) and 1.06 ± 0.087 (compound dose 5 µM).

Turning to `CN(C)C(=S)NN=C(c1ccccn1)c1ccccn1`, the cell count runs as follows: (compound dose 1 µM) 1.27 ± 0.43; (compound dose 5 µM) 1.34 ± 0.14.

With `O=C(NOC[C@H](O)CO)c1ccc(F)c(F)c1Nc1ccc(I)cc1F`, the cell count by setting is: (compound dose 1 µM) 0.335 ± 0.095; (compound dose 5 µM) 0.0665 ± 0.0092.

Consider `COc1ccc2c(c1)C(c1ccc(F)cc1)=C(CN1CCCC1)CO2`, for which the cell count reads like this: (compound dose 1 µM) 1.06 ± 0.16; (compound dose 5 µM) 1.03 ± 0.049.

With `O=C1CCC(N2Cc3cc(CNC(=O)C(F)(F)c4ccc(Cl)cc4)ccc3C2=O)C(=O)N1` (stereo not drawn) [Cereblon modulator 1], the cell count is, setting by setting: (compound dose 1 µM) 1.03 ± 0.039; (compound dose 5 µM) 0.97 ± 0.21.

For `CC1CCC2(OC1)OC1CC3C4CC=C5CC(OC6OC(CO)C(O)C(O)C6OC6OC(C)C(O)C(O)C6O)CCC5(C)C4CCC3(C)C1C2C` (stereo not drawn) [Prosapogenin A], the cell count worked out at 0.975 ± 0.027 (compound dose 1 µM) and 0.162 ± 0.055 (compound dose 5 µM).

Turning to `O=c1cc(-c2ccc(O)c(O)c2)oc2cc(O[C@@H]3O[C@H](CO)[C@@H](O)[C@H](O)[C@H]3O)cc(O)c12` [Cynaroside], the cell count is 1.08 ± 0.19 (compound dose 1 µM) and 1.26 ± 0.33 (compound dose 5 µM).

`CC1=C(CO)C(=O)O[C@@H]([C@@H](C)[C@H]2CC[C@H]3[C@@H]4C[C@H]5O[C@]56[C@@H](O)C=CC(=O)[C@]6(C)[C@H]4CC[C@]23C)C1` [Withaferin A]: the cell count by setting is: (compound dose 1 µM) 1.14 ± 0.52; (compound dose 5 µM) 0.0195 ± 0.0064.

For the compound `CC(=O)OC1CC2CCC1(C)C2(C)C` (stereo not drawn) [Bornyl acetate], the cell count by setting is: (compound dose 1 µM) 1.04 ± 0.24; (compound dose 5 µM) 1.09 ± 0.21.

`C=CC(=O)Nc1ccc2ncnc(Nc3cccc(Br)c3)c2c1`: the cell count was 1.16 ± 0.21 (compound dose 1 µM) and 1.02 ± 0.04 (compound dose 5 µM).

In the case of `COc1cc(/C=C(\C#N)C(N)=O)cc(CSc2nc3ccccc3s2)c1O`, the cell count worked out at 1.19 ± 0.067 (compound dose 1 µM) and 1.142 ± 0.0071 (compound dose 5 µM).

Regarding `CNCC[C@H](CSc1ccccc1)Nc1ccc(S(=O)(=O)NC(=O)c2ccc(N3CCN(CC4=C(c5ccc(Cl)cc5)CCC(C)(C)C4)CC3)cc2)cc1S(=O)(=O)C(F)(F)F` [Desmorpholinyl Navitoclax-NH-Me], the cell count reads like this: (compound dose 1 µM) 0.894 ± 0.18; (compound dose 5 µM) 0.73 ± 0.098.
